{"source": "the supplement of paper PMC8813932", "note": "Where a name gives a salt, the structure may show the parent alone. Some of the results follow. Repeats are few or missing, and single values can be far off.", "data": [{"system": "Ov4Cis", "assay": "log2 surviving fraction relative to plate median (drug vs vehicle, or drug+dl922-947 vs dl922-947 alone); higher = more cell survival", "conditions": "dl922-947 oncolytic adenovirus co-treatment: MOI 10; compound concentration: 10 uM; 192 h", "values": [{"smiles": "COc1ccc(CN(CCN(C)C)c2ccccn2)cc1", "note": "[Pyrilamine Maleate]", "log2 surviving fraction": -1.38}, {"smiles": "COc1c2occc2cc2ccc(=O)oc12", "note": "[Methoxsalen (Oxsoralen)]", "log2 surviving fraction": 0.0292}, {"smiles": "CC(C)NCC(O)c1cc(O)cc(O)c1", "note": "(stereo not given) [Metaproterenol Sulfate]", "log2 surviving fraction": -2.22}, {"smiles": "CC[C@H]1OC(=O)[C@H](C)[C@@H](O[C@H]2C[C@@](C)(OC)[C@@H](O)[C@H](C)O2)[C@H](C)[C@@H](O[C@@H]2O[C@H](C)C[C@H](N(C)C)[C@H]2O)[C@](C)(O)C[C@@H](C)CN(C)[C@H](C)[C@@H](O)[C@]1(C)O", "note": "[Azithromycin Dihydrate]", "log2 surviving fraction": -0.613}, {"smiles": "CCOC(=O)CCC(=O)O[C@H]1[C@H](O[C@@H]2[C@@H](C)[C@H](O[C@H]3C[C@@](C)(OC)[C@@H](O)[C@H](C)O3)[C@@H](C)C(=O)O[C@H](CC)[C@@](C)(O)[C@H](O)[C@@H](C)C(=O)[C@H](C)C[C@@]2(C)O)O[C@H](C)C[C@@H]1N(C)C", "note": "[Erythromycin Ethylsuccinate]", "log2 surviving fraction": -0.469}, {"smiles": "CN[C@@H]1[C@H](O)[C@H](NC)[C@H]2O[C@@]3(O)C(=O)C[C@@H](C)O[C@H]3O[C@@H]2[C@H]1O", "note": "[Spectinomycin  hydrochloride]", "log2 surviving fraction": -0.913}, {"smiles": "CC[C@H](C)C(=O)O[C@H]1CCC=C2C=C[C@H](C)[C@H](CC[C@@H]3C[C@@H](O)CC(=O)O3)[C@H]21", "note": "[Mevastatin]", "log2 surviving fraction": -0.725}, {"smiles": "NC(CO)C(=O)NNCc1ccc(O)c(O)c1O", "note": "(stereo not given) [Benserazide]", "log2 surviving fraction": 0.853}, {"smiles": "C[C@](N)(Cc1ccc(O)c(O)c1)C(=O)O", "note": "[Methyldopa (Aldomet)]", "log2 surviving fraction": 1.25}, {"smiles": "CC(C)c1nc(CN(C)C(=O)N[C@@H](CCN2CCOCC2)C(=O)N[C@H](CC[C@H](Cc2ccccc2)NC(=O)OCc2cncs2)Cc2ccccc2)cs1", "note": "[Cobicistat (GS-9350)]", "log2 surviving fraction": -0.249}]}, {"system": "Ov4Cis", "assay": "log2 surviving fraction relative to plate median (drug vs vehicle, or drug+dl922-947 vs dl922-947 alone); ovarian cancer lines: OVCAR4 is platinum-sensitive while Ov4Cis resists cisplatin and Ov4Carbo carboplatin; higher = more cell survival", "conditions": "dl922-947 oncolytic adenovirus co-treatment: none; compound concentration: 10 uM; 192 h", "values": [{"smiles": "N=C(N)c1ccc(N=NNc2ccc(C(=N)N)cc2)cc1", "note": "[Diminazene Aceturate]", "log2 surviving fraction": -0.379}, {"smiles": "Nc1cccc2c1CN(C1CCC(=O)NC1=O)C2=O", "note": "(stereo not given) [Lenalidomide]", "log2 surviving fraction": 1.22}, {"smiles": "CCC(=O)O[C@@H](O[P@](=O)(CCCCc1ccccc1)CC(=O)N1C[C@H](C2CCCCC2)C[C@H]1C(=O)O)C(C)C", "note": "[Fosinopril sodium (Monopril)]", "log2 surviving fraction": -0.22}, {"smiles": "CC1(C)S[C@@H]2[C@H](NC(=O)[C@H](N)c3ccccc3)C(=O)N2[C@H]1C(=O)O", "note": "[Ampicillin Trihydrate]", "log2 surviving fraction": 0.0588}, {"smiles": "CC[C@H]1OC(=O)C[C@@H](O)[C@H](C)[C@@H](O[C@@H]2O[C@H](C)[C@@H](O)[C@H](N(C)C)[C@H]2O)[C@@H](CCN2C[C@H](C)C[C@H](C)C2)C[C@@H](C)C(=O)/C=C/C(C)=C/[C@@H]1CO[C@@H]1O[C@H](C)[C@@H](O)[C@@H](OC)[C@H]1OC", "note": "[Tilmicosin]", "log2 surviving fraction": -1.97}, {"smiles": "CN/C(=N\\CCSCc1nc[nH]c1C)NC#N", "note": "[Cimetidine (Tagamet)]", "log2 surviving fraction": 0.563}, {"smiles": "CC(C)C(=O)Nc1ccc([N+](=O)[O-])c(C(F)(F)F)c1", "note": "[Flutamide (Eulexin)]", "log2 surviving fraction": -0.449}, {"smiles": "CCCOc1ccc(C(=O)OCCN(CC)CC)cc1N", "note": "[Proparacaine HCl]", "log2 surviving fraction": 0.00386}, {"smiles": "C=CCc1cc(OC)c(O)c(C(=O)NCCO)c1", "note": "[Alibendol]", "log2 surviving fraction": 1.34}, {"smiles": "Cn1c(CNc2ccc(C(=N)N)cc2)nc2cc(C(=O)N(CCC(=O)O)c3ccccn3)ccc21", "note": "[BIBR 953 (Dabigatran etexilate, Pradaxa)]", "log2 surviving fraction": -0.704}, {"smiles": "CC(C)OC(=O)C(C(=O)OC(C)C)=C1SC=CS1", "note": "[Malotilate]", "log2 surviving fraction": -0.309}, {"smiles": "CN(C)CCOc1ccc(/C(=C(/CCCl)c2ccccc2)c2ccccc2)cc1", "note": "[Toremifene Citrate (Fareston, Acapodene)]", "log2 surviving fraction": -3.97}, {"smiles": "C[C@@H]1CCC[C@H](C)N1NC(=O)c1ccc(Cl)c(S(N)(=O)=O)c1", "note": "[Clopamide]", "log2 surviving fraction": -0.239}, {"smiles": "CC(=O)OC[C@H]1O[C@@H]([S-])[C@H](OC(C)=O)[C@@H](OC(C)=O)[C@@H]1OC(C)=O.CCP(CC)CC.[Au+]", "note": "[Auranofin]", "log2 surviving fraction": -14.9}, {"smiles": "CN(C(=O)CN(CCO)CC(=O)N(C)C(C)(C)Cc1ccccc1)C(C)(C)Cc1ccccc1", "note": "[Oxethazaine]", "log2 surviving fraction": -5.3}, {"smiles": "CCC[C@@H]1C[C@@H](C(=O)N[C@@H]([C@H]2O[C@H](SC)[C@H](O)[C@@H](O)[C@H]2O)[C@@H](C)O)N(C)C1", "note": "[Lincomycin hydrochloride (Lincocin)]", "log2 surviving fraction": 0.44}, {"smiles": "CC12CC3CC(C)(C1)CC(N)(C3)C2", "note": "[Memantine HCl (Namenda)]", "log2 surviving fraction": -1.49}, {"smiles": "Cc1cccc(C(C)c2c[nH]cn2)c1C", "note": "(stereo not given) [Medetomidine HCl]", "log2 surviving fraction": 0.265}, {"smiles": "O=C(O)CCNC(=O)c1ccccc1", "note": "[Betamipron]", "log2 surviving fraction": -0.265}, {"smiles": "C[C@H](CS)C(=O)N1CCC[C@H]1C(=O)O", "note": "[Captopril (Capoten)]", "log2 surviving fraction": -0.239}, {"smiles": "C[C@@H](O)[C@H]1C(=O)N2C(C(=O)O)=C(S[C@@H]3CN[C@H](C(=O)N(C)C)C3)[C@H](C)[C@H]12", "note": "[Meropenem]", "log2 surviving fraction": -0.616}, {"smiles": "CN(C/C=C/C#CC(C)(C)C)Cc1cccc2ccccc12", "note": "[Terbinafine hydrochloride (Lamisil)]", "log2 surviving fraction": 0.564}, {"smiles": "Nc1ncnc2c1ncn2[C@@H]1O[C@H](COP(=O)(O)OP(=O)(O)OP(=O)(O)O)[C@@H](O)[C@H]1O", "note": "[ATP (Adenosine-Triphosphate)]", "log2 surviving fraction": 0.599}, {"smiles": "NC(=O)c1cnccn1", "note": "[Pyrazinamide (Pyrazinoic acid amide)]", "log2 surviving fraction": 0.91}, {"smiles": "Cc1ccccc1C(=O)Nc1ccc(C(=O)N2CCCC(O)c3cc(Cl)ccc32)c(C)c1", "note": "(stereo not given)", "log2 surviving fraction": -2.77}, {"smiles": "CCC[C@H](NC(=O)[C@@H]1[C@H]2CCC[C@H]2CN1C(=O)[C@@H](NC(=O)[C@@H](NC(=O)c1cnccn1)C1CCCCC1)C(C)(C)C)C(=O)C(=O)NC1CC1", "note": "[Telaprevir (VX-950)]", "log2 surviving fraction": -0.968}, {"smiles": "O=C1C(O)=C([C@H]2CC[C@H](c3ccc(Cl)cc3)CC2)C(=O)c2ccccc21", "note": "[Atovaquone (Atavaquone)]", "log2 surviving fraction": -0.155}, {"smiles": "CC(C)(C#N)c1cc(Cn2cncn2)cc(C(C)(C)C#N)c1", "note": "[Anastrozole]", "log2 surviving fraction": 0.823}, {"smiles": "CS(=O)(=O)CCNCc1ccc(-c2ccc3ncnc(Nc4ccc(OCc5cccc(F)c5)c(Cl)c4)c3c2)o1", "note": "[Lapatinib]", "log2 surviving fraction": -3.96}, {"smiles": "CC[C@H](C)[C@H](N)C1=N[C@H](C(=O)N[C@@H](CC(C)C)C(=O)N[C@H](CCC(=O)[O-])C(=O)N[C@H](C(=O)N[C@H]2CCCCNC(=O)[C@H](CC(N)=O)NC(=O)[C@@H](CC(=O)[O-])NC(=O)[C@H](Cc3cnc[nH]3)NC(=O)[C@@H](Cc3ccccc3)NC(=O)[C@H]([C@@H](C)CC)NC(=O)[C@@H](CCCN)NC2=O)[C@@H](C)CC)CS1.[Zn+2]", "note": "[Bacitracin zinc]", "log2 surviving fraction": 0.187}, {"smiles": "COc1ccc(CN(CCN(C)C)c2ccccn2)cc1", "note": "[Pyrilamine Maleate]", "log2 surviving fraction": 0.358}, {"smiles": "COc1c2occc2cc2ccc(=O)oc12", "note": "[Methoxsalen (Oxsoralen)]", "log2 surviving fraction": 0.723}, {"smiles": "CC(C)NCC(O)c1cc(O)cc(O)c1", "note": "(stereo not given) [Metaproterenol Sulfate]", "log2 surviving fraction": 0.202}, {"smiles": "CC[C@H]1OC(=O)[C@H](C)[C@@H](O[C@H]2C[C@@](C)(OC)[C@@H](O)[C@H](C)O2)[C@H](C)[C@@H](O[C@@H]2O[C@H](C)C[C@H](N(C)C)[C@H]2O)[C@](C)(O)C[C@@H](C)CN(C)[C@H](C)[C@@H](O)[C@]1(C)O", "note": "[Azithromycin Dihydrate]", "log2 surviving fraction": 0.577}, {"smiles": "CCOC(=O)CCC(=O)O[C@H]1[C@H](O[C@@H]2[C@@H](C)[C@H](O[C@H]3C[C@@](C)(OC)[C@@H](O)[C@H](C)O3)[C@@H](C)C(=O)O[C@H](CC)[C@@](C)(O)[C@H](O)[C@@H](C)C(=O)[C@H](C)C[C@@]2(C)O)O[C@H](C)C[C@@H]1N(C)C", "note": "[Erythromycin Ethylsuccinate]", "log2 surviving fraction": -0.258}, {"smiles": "CN[C@@H]1[C@H](O)[C@H](NC)[C@H]2O[C@@]3(O)C(=O)C[C@@H](C)O[C@H]3O[C@@H]2[C@H]1O", "note": "[Spectinomycin  hydrochloride]", "log2 surviving fraction": -0.398}, {"smiles": "CC[C@H](C)C(=O)O[C@H]1CCC=C2C=C[C@H](C)[C@H](CC[C@@H]3C[C@@H](O)CC(=O)O3)[C@H]21", "note": "[Mevastatin]", "log2 surviving fraction": -1.62}, {"smiles": "NC(CO)C(=O)NNCc1ccc(O)c(O)c1O", "note": "(stereo not given) [Benserazide]", "log2 surviving fraction": -0.339}, {"smiles": "C[C@](N)(Cc1ccc(O)c(O)c1)C(=O)O", "note": "[Methyldopa (Aldomet)]", "log2 surviving fraction": 1.43}, {"smiles": "CC(C)c1nc(CN(C)C(=O)N[C@@H](CCN2CCOCC2)C(=O)N[C@H](CC[C@H](Cc2ccccc2)NC(=O)OCc2cncs2)Cc2ccccc2)cs1", "note": "[Cobicistat (GS-9350)]", "log2 surviving fraction": -2.54}]}]}
